Test results: publication PMC4336329 (PLoS ONE, 2015)
In all, about 310,000 compounds went through this assay and about 2,200 (0.71%) showed an effect of 50% or more. The effect is printed as a negative number. The list shows a part of the results.

What follows are compounds tested against human ether-à-go-go-related gene (hERG) potassium channel (human, UniProt Q12809) (assay: primary screen, population patch clamp on CHO cells stably expressing hERG).
Chain of human ether-à-go-go-related gene (hERG) potassium channel (Q12809 whole entry, looked up): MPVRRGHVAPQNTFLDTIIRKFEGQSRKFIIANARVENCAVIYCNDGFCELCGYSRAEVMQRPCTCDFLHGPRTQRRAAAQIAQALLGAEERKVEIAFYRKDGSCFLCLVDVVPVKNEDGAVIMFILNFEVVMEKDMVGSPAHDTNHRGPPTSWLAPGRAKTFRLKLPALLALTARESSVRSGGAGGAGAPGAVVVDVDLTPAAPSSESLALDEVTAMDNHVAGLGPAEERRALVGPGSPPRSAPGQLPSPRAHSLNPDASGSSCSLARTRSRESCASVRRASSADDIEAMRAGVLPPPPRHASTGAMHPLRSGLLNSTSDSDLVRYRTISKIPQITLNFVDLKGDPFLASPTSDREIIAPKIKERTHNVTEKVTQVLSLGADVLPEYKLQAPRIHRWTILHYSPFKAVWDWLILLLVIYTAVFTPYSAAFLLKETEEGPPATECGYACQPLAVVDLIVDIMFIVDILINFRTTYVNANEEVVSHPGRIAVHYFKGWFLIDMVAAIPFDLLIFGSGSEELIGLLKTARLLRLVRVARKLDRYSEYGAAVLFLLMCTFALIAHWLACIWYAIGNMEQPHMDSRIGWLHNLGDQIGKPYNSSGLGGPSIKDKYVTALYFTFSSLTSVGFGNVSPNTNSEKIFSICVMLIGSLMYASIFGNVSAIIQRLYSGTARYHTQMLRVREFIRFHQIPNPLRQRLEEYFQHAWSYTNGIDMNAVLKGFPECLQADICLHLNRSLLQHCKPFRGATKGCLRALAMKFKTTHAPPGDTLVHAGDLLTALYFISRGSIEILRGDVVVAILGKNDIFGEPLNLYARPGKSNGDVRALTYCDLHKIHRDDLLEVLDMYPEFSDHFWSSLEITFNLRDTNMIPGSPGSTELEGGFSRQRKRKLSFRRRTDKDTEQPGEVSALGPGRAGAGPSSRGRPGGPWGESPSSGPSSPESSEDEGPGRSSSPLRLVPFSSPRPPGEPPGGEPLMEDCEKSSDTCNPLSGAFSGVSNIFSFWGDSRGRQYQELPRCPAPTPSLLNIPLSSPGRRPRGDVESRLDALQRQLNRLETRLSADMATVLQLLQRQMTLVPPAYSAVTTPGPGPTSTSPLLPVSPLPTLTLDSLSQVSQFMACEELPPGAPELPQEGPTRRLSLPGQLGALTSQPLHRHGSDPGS
CCOC(=O)CCNC(=O)c1ccc2nc(C3CCCCC3)oc2c1 was tested, and the “hERG current change (%, negative = inhibition) at 1uM” value was 3.58%.
With COc1ccc(CC(=O)OCc2cc3ccccc3[nH]c2=O)cc1 the “hERG current change (%, negative = inhibition) at 1uM” value was 16.3%.
With Cc1cc2c(NC(=O)Nc3ccccc3)cccc2nn1 the “hERG current change (%, negative = inhibition) at 1uM” value was 11.3%.
In the case of c1ccc2c(-c3nnc(SCc4cn5ccccc5n4)o3)c[nH]c2c1, the “hERG current change (%, negative = inhibition) at 1uM” value is reported as 2.29%.
In the case of Cc1ccc(C)c(C(=O)COC(=O)Cn2c(C)csc2=O)c1, the “hERG current change (%, negative = inhibition) at 1uM” value is reported as 11.7%.
In the case of CCOC(=O)C[C@H]1c2ccc(C(F)(F)F)cc2S(=O)(=O)N1c1ccccc1, the “hERG current change (%, negative = inhibition) at 1uM” value is reported as 9.98%.
CCCCCC/C=C/c1ccc([C@H]2[C@H]3C=CC[C@@H](C)[C@@H]3C(=O)N2Cc2ccccc2)c(F)c1 was tested, and the “hERG current change (%, negative = inhibition) at 1uM” value was 10.4%.
O=C(O)CC(NC(=O)c1ccco1)c1ccco1 (stereo not drawn) was tested, and the “hERG current change (%, negative = inhibition) at 1uM” value was 1.01%.
With COc1ccc(-c2cc(C(F)(F)F)nc(SCC(=O)N(C)Cc3cnn(C)c3C)n2)cc1OC the “hERG current change (%, negative = inhibition) at 1uM” value was -10.3%.
With CS(=O)(=O)Nc1ccc(C(=O)NCCc2ccccc2)cc1 the “hERG current change (%, negative = inhibition) at 1uM” value was -28.3%.
With O=C(CCC(=O)c1cccs1)Nc1ccc(N2CCCCC2)cc1 the “hERG current change (%, negative = inhibition) at 1uM” value was -2.42%.
With CC(=O)N/C(=C\c1ccccc1)C(=O)OCC(=O)c1c(N)n(CC(C)C)c(=O)n(C)c1=O the “hERG current change (%, negative = inhibition) at 1uM” value was 11.4%.
In the case of CCNC(=O)C/C(C)=N/NC(=O)C12CC3CC(CC(C3)C1)C2, the “hERG current change (%, negative = inhibition) at 1uM” value is reported as 16.6%.
For O=C(COc1ncnc2ccccc12)NCCc1ccc(F)cc1, the “hERG current change (%, negative = inhibition) at 1uM” value was 5.77%.
For Cc1cccc(C(=O)Nc2cccc(Br)c2)c1[N+](=O)[O-], the “hERG current change (%, negative = inhibition) at 1uM” value was 8.53%.
With CCOC(=O)c1cnc(SC)nc1Oc1cccc(NC(=O)c2ccc(C)cc2)c1 the “hERG current change (%, negative = inhibition) at 1uM” value was 14.3%.
In the case of O=C(Cn1cc([N+](=O)[O-])cn1)Nc1cccnc1, the “hERG current change (%, negative = inhibition) at 1uM” value is reported as 2.54%.
For COc1cccc(C(=O)c2c[nH]c(C(=O)NCCCN3CCOCC3)c2)c1, the “hERG current change (%, negative = inhibition) at 1uM” value was 12.3%.
With O=C(CCSc1nc(-c2ccco2)cc(C(F)(F)F)n1)NCCN1CCOCC1 the “hERG current change (%, negative = inhibition) at 1uM” value was 13.2%.
For O=C1/C(=C/c2ccncc2)SC(=S)N1C1CCCCC1, the “hERG current change (%, negative = inhibition) at 1uM” value was 13.9%.
For COP(=O)(OC)c1nc(-c2cccc3ccccc23)oc1NCCc1ccccc1, the “hERG current change (%, negative = inhibition) at 1uM” value was 11.7%.
With CN1CCC(NC(=O)c2cccs2)CC1 the “hERG current change (%, negative = inhibition) at 1uM” value was 12.4%.
For COc1ccccc1NC(=O)N1CCCC1C(=O)NC1CCCCC1 (stereo not drawn), the “hERG current change (%, negative = inhibition) at 1uM” value was 12.9%.
For Cc1ccc2c(O)c(C)c(=O)[nH]c2n1, the “hERG current change (%, negative = inhibition) at 1uM” value was 10.6%.
For CC(C1CCN(Cc2cn(C)nc2-c2cccc(Cl)c2)CC1)N1CCOCC1 (stereo not drawn), the “hERG current change (%, negative = inhibition) at 1uM” value was 4.87%.
With Cc1ccc(C)c(NC(=O)C2C(c3ccccc3)C2(Cl)Cl)c1 (stereo not drawn) the “hERG current change (%, negative = inhibition) at 1uM” value was 7.09%.
For Clc1ccc(CSc2snnc2-c2ccccc2)c(Cl)c1, the “hERG current change (%, negative = inhibition) at 1uM” value was 16.8%.
With Cc1csc(SCC(=O)NCc2ccccc2Cl)n1 the “hERG current change (%, negative = inhibition) at 1uM” value was -3.75%.
For Cc1cc(=O)oc2cc(OCc3ccc(C(=O)N4CCN(c5ccccc5)CC4)cc3)ccc12, the “hERG current change (%, negative = inhibition) at 1uM” value was 13.3%.
With CC1CN(C)C(C)CC1NCc1ccc2c(c1)OCO2 (stereo not drawn) the “hERG current change (%, negative = inhibition) at 1uM” value was 11.1%.
With Cc1ccc(Cl)cc1N1CCN(S(=O)(=O)c2ccc3c(c2)oc(=O)n3C)CC1 the “hERG current change (%, negative = inhibition) at 1uM” value was -9.3%.
CN(C)S(=O)(=O)c1cccc(NC(=O)C2Cc3ccccc3CN2C(=O)c2ccco2)c1 (stereo not drawn) was tested, and the “hERG current change (%, negative = inhibition) at 1uM” value was 6.88%.
With COC(=O)c1ccccc1NC(=O)CN1CCC(C(=O)c2ccc3c(c2)OCCO3)CC1 the “hERG current change (%, negative = inhibition) at 1uM” value was 15.8%.
Cc1ccccc1OCCC(=O)OCC(=O)NC1CCCCC1 was tested, and the “hERG current change (%, negative = inhibition) at 1uM” value was -3.09%.
In the case of Cc1ccc(C)c(S(=O)(=O)Nc2ccc(C(=O)NCCCN3CCCC3=O)cc2)c1, the “hERG current change (%, negative = inhibition) at 1uM” value is reported as 9.62%.
For CN=C(c1ccco1)n1c(=S)nc(-c2ccco2)n(C)c1=S, the “hERG current change (%, negative = inhibition) at 1uM” value was 18.6%.
COc1ccccc1C(=O)NC(=S)Nc1ccc(N2CCCC2)cc1 was tested, and the “hERG current change (%, negative = inhibition) at 1uM” value was 6.05%.
With Cc1ccc(-c2nc(C#N)c(NCCN3CCCCC3)o2)cc1 the “hERG current change (%, negative = inhibition) at 1uM” value was -29.7%.
With O=c1cc(NCc2ccccc2)nc2n1CCCS2 the “hERG current change (%, negative = inhibition) at 1uM” value was 10.4%.
In the case of COC(=O)/C(=C\Nc1ccc(Cl)c2ccccc12)c1ncc(C(F)(F)F)cc1Cl, the “hERG current change (%, negative = inhibition) at 1uM” value is reported as 12.5%.
With Cc1cc(CN2CCC(N3CCC(C(=O)NC4CC4)CC3)CC2)cc(C)c1O the “hERG current change (%, negative = inhibition) at 1uM” value was 14.5%.
In the case of Cc1ccc(CNC(=O)C(Cc2ccccc2)n2cccc2)cc1 (stereo not drawn), the “hERG current change (%, negative = inhibition) at 1uM” value is reported as 31.1%.
With CCN1/C(=C(\O)c2ccccc2)C(=O)c2ccccc2S1(=O)=O the “hERG current change (%, negative = inhibition) at 1uM” value was 13.6%.
For COc1cc(/C=C/C(=O)N2CCN(Cc3ccccc3)CC2)cc(OC)c1OC, the “hERG current change (%, negative = inhibition) at 1uM” value was 13%.
In the case of CCC(C)(C)NC(=O)c1cc(C(=O)OC)cc([N+](=O)[O-])c1, the “hERG current change (%, negative = inhibition) at 1uM” value is reported as -0.341%.
With CCN(C(=O)CN1CCOCC1)c1c(N)n(Cc2ccccc2)c(=O)[nH]c1=O the “hERG current change (%, negative = inhibition) at 1uM” value was 16.1%.
COc1ccc(CCNC(=O)c2ccc3c(SCC(=O)O)c4c(nc3c2)CCCC4)cc1OC was tested, and the “hERG current change (%, negative = inhibition) at 1uM” value was 13.2%.
With Cc1cccc(NC(=O)C(=O)NCc2ccccn2)c1 the “hERG current change (%, negative = inhibition) at 1uM” value was -4.59%.
For O=C(N/C(=C\c1ccccc1)C(=O)N1CCOCC1)c1ccco1, the “hERG current change (%, negative = inhibition) at 1uM” value was 8.97%.
CN(C)c1ccc(/C=N\Nc2ccccn2)cc1 was tested, and the “hERG current change (%, negative = inhibition) at 1uM” value was 13.6%.
In the case of CN(c1ccc(C(=O)NCc2cccs2)cc1)S(=O)(=O)c1ccccc1, the “hERG current change (%, negative = inhibition) at 1uM” value is reported as 12.9%.
Cc1cccc(NC(=O)CN2C(=O)CCSc3ccc(S(=O)(=O)N4CCOCC4)cc32)c1C was tested, and the “hERG current change (%, negative = inhibition) at 1uM” value was 13.1%.
With CCOC(=O)c1c(C)[nH]c(C)c1C(=O)CN1C(=O)NC(CC(C)C)C1=O (stereo not drawn) the “hERG current change (%, negative = inhibition) at 1uM” value was 15.8%.
With Cc1cc(S(=O)(=O)N2CCCC2)ccc1OCC(=O)NCc1ccccn1 the “hERG current change (%, negative = inhibition) at 1uM” value was 11.4%.
With O=C(NCCCN1CCOCC1)c1cc2nc(-c3ccco3)cc(C(F)(F)F)n2n1 the “hERG current change (%, negative = inhibition) at 1uM” value was 11.4%.
With C=CCOc1c(Cl)cc(CNc2ccc(N(C)C)cc2)cc1OC the “hERG current change (%, negative = inhibition) at 1uM” value was 21.4%.
O=C(O)C1CCCN(S(=O)(=O)c2ccccc2[N+](=O)[O-])C1 (stereo not drawn) was tested, and the “hERG current change (%, negative = inhibition) at 1uM” value was 4.46%.
